Measurements from the supplement of paper PMC3334620.
Over roughly 33,000 sequences, “E-score (-0.5 to 0.5)” has its median near -0.036; the highest 2% begin near 0.37. This is one part of the list.

Each sequence was assayed against T1, Yer064c (UniProt P40041) (assay: PBM E-score (8-mer binding enrichment) (E-score (-0.5 to 0.5)); higher = stronger / more preferred TF binding; most listed sequences are background and not binding sites). Conditions: protein concentration: 200 nM; construct: GST-full length.
T1 sequence: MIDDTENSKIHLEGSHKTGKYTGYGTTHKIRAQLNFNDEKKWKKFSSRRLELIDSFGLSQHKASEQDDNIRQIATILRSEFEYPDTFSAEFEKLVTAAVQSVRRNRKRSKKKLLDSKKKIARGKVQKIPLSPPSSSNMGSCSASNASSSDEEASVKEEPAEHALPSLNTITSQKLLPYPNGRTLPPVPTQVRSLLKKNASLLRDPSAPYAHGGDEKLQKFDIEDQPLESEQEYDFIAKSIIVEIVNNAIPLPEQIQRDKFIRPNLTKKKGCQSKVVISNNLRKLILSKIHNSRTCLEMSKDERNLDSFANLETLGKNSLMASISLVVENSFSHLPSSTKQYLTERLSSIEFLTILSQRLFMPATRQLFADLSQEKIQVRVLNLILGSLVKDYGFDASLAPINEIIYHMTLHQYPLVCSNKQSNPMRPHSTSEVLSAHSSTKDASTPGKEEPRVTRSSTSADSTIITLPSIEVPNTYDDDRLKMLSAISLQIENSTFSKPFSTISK
Summary of the method: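 Detection of bound protein used fluorescent anti-GST, with scans normalised by masliner. The proteins were GST-tagged yeast transcription factors applied at about 100-200 nM to universal all-10-mer Agilent arrays made double-stranded by primer extension. Each ungapped eight-base word, pooled with its reverse complement, was scored with an E-score from the Universal PBM Analysis Suite.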

| Sequence | PBM E-score |
| --- | --- |
| TAAAGTAA | 0.049 |
| AAGAGCAA | -0.0665 |
| ACATCGGT | -0.0199 |
| GTGCGCAC | -0.0104 |
| CGCTAAAA | -0.0446 |
| CCCATAGA | -0.0505 |
| ACCGCCAG | -0.117 |
| AAGTGACG | 0.0587 |
| GAAAGTAA | 0.098 |
| TCGTGACA | 0.0154 |
| CCCCCGGG | -0.228 |
| AGCACGGG | -0.212 |
| CATACCTA | -0.085 |
| CAATAGAG | -0.0353 |
| ACGTGCCG | -0.238 |
| AGAAGGTC | -0.0538 |
| GGAGCAGA | -0.176 |
| ACCGAAGG | -0.0653 |
| AGAAGTAT | 0.0717 |
| CGCGTAGA | 0.0291 |
| GCCGAGGA | -0.172 |
| GAGGTGGA | -0.192 |
| TACTAAGA | 0.113 |
| AAGACTGG | 0.1 |
| CGACAGAG | -0.0334 |

| Sequence | PBM E-score |
| --- | --- |
| CGAGTCCG | 0.272 |
| TGGAGCCA | -0.0649 |
| CAGGGGTC | -0.022 |
| CCTCGTCG | -0.179 |
| AGATAGGC | -0.147 |
| ACTGCAGA | 0.128 |
| AACTCGGC | 0.00137 |
| GGGTCCAC | -0.116 |
| CTAGTTAA | 0.192 |
| CTGCGGAC | -0.0565 |
| ACCACAGC | -0.176 |
| CTGGAAAA | 0.0804 |
| CGCTAGTC | 0.29 |
| GGCAGAAA | 0.048 |
| GTCCTCAC | 0.0812 |
| ATAGGCCC | -0.281 |
| AAGCAATA | 0.0273 |
| AACGGCTA | -0.0485 |
| CTCGTCTA | 0.0806 |
| AAGTACAC | -0.00131 |
| CGCACATA | -0.0944 |
| AGAGAGCT | -0.231 |
| CCAGGCCG | 0.0201 |
| CAAAAGGA | -0.124 |
| AGTTGGGG | -0.127 |

| Sequence | PBM E-score |
| --- | --- |
| ATTCAAGA | 0.135 |
| GACGAACA | -0.0946 |
| ATGGGATA | -0.116 |
| GAAAACCA | -0.0862 |
| ATCGCATA | 0.00157 |
| ATCCAAAT | 0.0803 |
| TGACTCAA | 0.492 |
| ATTCCCAA | -0.00741 |
| CCCTCTTC | -0.303 |
| GCGGGCCC | -0.194 |
| AGATTCCG | -0.051 |
| GGTCCTTA | 0.0582 |
| ACTGCTCA | 0.132 |
| ACATTAAC | 0.128 |
| AGCGTCCT | -0.187 |
| CTCCTTAC | -0.231 |
| ACGAGGAT | -0.194 |
| AGTTCCGC | -0.0574 |
| GTTTTTCA | 0.0278 |
| AGTTATAA | 0.0907 |
| ATGTCGTG | -0.101 |
| CGTACAAG | 0.0185 |
| CGCATGTA | -0.125 |
| CTAATTCA | 0.0344 |
| ACTGTTAC | -0.0683 |

| Sequence | PBM E-score |
| --- | --- |
| AAGCTCGA | -0.0636 |
| CAGTGAAA | 0.0766 |
| ATGTCTGA | 0.139 |
| ACAGCCGG | -0.0963 |
| ACCAAGCA | -0.0624 |
| CATATTAA | 0.156 |
| CCATTTTC | -0.0323 |
| ACCGCCTA | -0.158 |
| ACAGCACC | -0.172 |
| AGTTATGC | 0.0497 |
| GGTTTGGA | 0.00152 |
| GTGAGGGA | -0.241 |
| TAAGCACA | -0.0264 |
| GTCCTCAA | 0.159 |
| AATTCTGA | 0.153 |
| CGGGTCCC | -0.251 |
| ATGTGCTC | 0.125 |
| ATCCCATG | -0.105 |
| CAACGTCG | -0.00846 |
| GACGCGGA | -0.158 |
| ATACACTC | 0.144 |
| CTCAAGGC | 0.104 |
| ATCCAGCA | -0.101 |
| GGTCAGCA | -0.0951 |
| GCGTATAC | 0.00913 |

| Sequence | PBM E-score |
| --- | --- |
| CCGCATAC | -0.117 |
| ATGGAGTA | 0.182 |
| AGGAGAAC | -0.151 |
| CGTTGTAC | -0.0197 |
| ACACAAAG | 0.05 |
| CCGCACAC | -0.102 |
| CAAATCAA | 0.126 |
| TCGAGCGA | 0.0738 |
| CAAGTATG | 0.164 |
| AGATCGGA | 0.0279 |
| CCTGATTA | 0.344 |
| ACAGTACA | 0.0408 |
| AATTGTCC | -0.072 |
| CCCGGGCC | -0.273 |
| GCCCTCGC | -0.288 |
| GTGTATAA | 0.0333 |
| ATGTGGCG | -0.302 |
| CACACTCA | 0.171 |
| AATAGGGT | -0.117 |
| CCGACGCC | -0.0992 |
| CCGACTGA | 0.192 |
| ATACACTA | 0.0112 |
| AGCCTCCC | -0.188 |
| ATTCAACA | 0.191 |
| GAAGTCAA | 0.357 |

| Sequence | PBM E-score |
| --- | --- |
| AGCCTTTC | -0.263 |
| AATCCTTA | -0.00608 |
| CCTTTAAC | 0.0238 |
| CCCCCCCG | -0.054 |
| ATTCGCGA | 0.122 |
| ATAGTCAT | 0.489 |
| AAAAGCCT | -0.127 |
| CGAATCCG | 0.0437 |
| CACGCTCC | -0.244 |
| CAGATATA | -0.0684 |
| CTTGAGGC | -0.146 |
| AACAGTAC | 0.0768 |
| ACGCTGGC | -0.197 |
| ATTGTACA | 0.0112 |
| TTATGCAA | 0.0691 |
| AAGTACGC | -0.0952 |
| GTGACAGA | -0.0932 |
| ACTGAACG | 0.0327 |
| CGCCGGCA | -0.0982 |
| ACGGGCCA | -0.376 |
| CAAAGGCC | -0.278 |
| CCCCTGCG | -0.348 |
| GACTGTGC | 0.19 |
| CCGACCCA | -0.16 |
| AAAAAAAC | -0.0134 |

| Sequence | PBM E-score |
| --- | --- |
| ACCCCGTA | -0.00527 |
| GAAACGAC | 0.116 |
| ACCTAACA | -0.0986 |
| CAAGGACG | -0.103 |
| ACTTGAGG | 0.0112 |
| GCTGCACA | -0.139 |
| AGACAGTG | -0.0351 |
| AGGGAATG | -0.0881 |
| ATGTCTGG | -0.153 |
| CCTGTCGC | -0.264 |
| AGAATTCT | 0.146 |
| GAAATCTA | -0.101 |
| AGCACAGA | 0.0464 |
| AGACTTTA | 0.124 |
| GAATAGCA | 0.147 |
| CCTTTTTC | 0.00747 |
| GTAGTTTA | 0.115 |
| ACTTTCTC | 0.0558 |
| GCCCGGTA | -0.284 |
| GGTTTCAA | -0.0375 |
| GTCGATCA | 0.0338 |
| AATCTTGA | 0.193 |
| ATTCGTTA | 0.198 |
| CGTAAATA | 0.0322 |
| ATTTTCCG | -0.0895 |

| Sequence | PBM E-score |
| --- | --- |
| ATTGAGCG | 0.0955 |
| CGGACTGC | 0.111 |
| AATGCATG | 0.0357 |
| CAGTTAAC | -0.0534 |
| AGGCATGG | -0.0669 |
| ACCCATAA | 0.145 |
| GCTGCCCC | -0.203 |
| AGATCGAG | -0.173 |
| GCCCCCTA | -0.302 |
| AGCATGCC | -0.131 |
| GGAAGTCA | 0.426 |
| AGTGCCTG | -0.118 |
| CGCCCGCA | -0.0824 |
| CACGCTAA | -0.0272 |
| AATGCTTA | -0.162 |
| GGGGTCAA | -0.102 |
| AAACGAGA | 0.0214 |
| TGGCAGAA | -0.0929 |
| CCCTGTTC | -0.222 |
| CGAATCTA | -0.0926 |
| GATCCCCA | -0.127 |
| CAACTGGG | -0.217 |
| GAGCACAC | -0.151 |
| ATCTCGCG | 0.0687 |
| CTTCCAAG | 0.0955 |

| Sequence | PBM E-score |
| --- | --- |
| GTTGCATA | -0.0714 |
| ATGTTAAC | 0.0543 |
| AAGCCATG | 0.0388 |
| ATCTACTA | 0.0859 |
| AGTCTCAG | 0.337 |
| ACTGTTTA | 0.204 |
| GACACCGA | 0.0153 |
| AGCAGCTA | -0.125 |
| CACTCAGG | 0.0389 |
| AACCCACC | 0.111 |
| AACATAAG | -0.0141 |
| GATACTTA | -0.0171 |
| CCAATCGA | -0.0138 |
| CCTAAAGC | -0.134 |
| AATCGCTA | 0.00634 |
| GCCCTGAA | -0.165 |
| TGAACTCA | 0.253 |
| ATCCATAC | 0.0869 |
| GGGAGTAC | 0.137 |
